PubChem BioAssay (NCI)
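Cells were grown in 96-well plates and exposed to each compound for 48 hours at five concentrations; endpoints were interpolated linearly between bracketing concentrations, or set to the highest concentration if not reached. GI50: concentration for 50% inhibition of growth.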 Certain results were filed several times, with different values. They are shown here; other results are not. The source may hold further records. For some of these results: Values that stand side by side are repeats in other runs, samples, wells, individuals or studies. Brackets tell where a record comes from. A, B and so on number the origins entry by entry.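 TGI is the concentration that stops growth completely.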 For some of these results: Records of one sample usually come from different ranges of test concentrations, which the source does not state; some values may only mark the edge of a range.

Key:
Test in all cases: DTP human tumour cell line panel, 48 h
[1] = test system: HOP-92 NSCLC
[2] = test system: DMS 114 small cell lung
[3] = test system: HT29 colon
[4] = test system: SK-MEL-2 melanoma
[5] = test system: HOP-62 NSCLC
[6] = test system: U251 CNS
[7] = test system: SF-295 CNS
[8] = test system: UACC-62 melanoma
[9] = test system: OVCAR-5 ovarian
[10] = test system: SK-OV-3 ovarian
[11] = test system: DMS 273 small cell lung
[12] = test system: SNB-75 CNS
[13] = test system: XF 498 CNS
[14] = test system: MOLT-4 leukemia
[15] = test system: NCI-H23 lung
[16] = test system: RXF 393 renal
[17] = test system: MALME-3M melanoma
[18] = test system: K-562 leukemia
[19] = test system: RPMI-8226 leukemia
[20] = test system: MDA-MB-231 breast
[21] = test system: SF-539 CNS
[22] = test system: NCI-H460 lung
[23] = test system: BT-549 breast
[24] = test system: M14 melanoma
[25] = test system: DU-145 prostate
[26] = test system: PC-3 prostate
[27] = test system: M19-MEL melanoma
[28] = test system: KM20L2 colon
[29] = test system: LXFL 529 NSCLC
[30] = test system: SW-620 colon
[31] = test system: SF-268 CNS
[32] = test system: DLD-1 colon
[33] = test system: RXF-631 renal
[34] = test system: LOX IMVI melanoma
[35] = test system: NCI/ADR-RES ovarian
[36] = test system: MDA-MB-435
[37] = test system: MCF7 breast
[38] = test system: OVCAR-3 ovarian
[39] = test system: KM12 colon
[40] = test system: COLO 205 colon
[41] = test system: SR leukemia
[42] = test system: HL-60(TB) leukemia
[43] = test system: NCI-H522 lung
[44] = test system: SK-MEL-28 melanoma
[45] = test system: SK-MEL-5 melanoma
[46] = test system: A498 renal

CC1[C@@]2(CCC(C)(C)O2)O[C@@H]2C=C3C4CCC5Cc6nc7c(nc6C[C@@]5(C)C4C[C@H](O)[C@@]3(C)[C@]12O)CC1CCC2C3=C[C@H]4O[C@@]5(O[C@@](C)(CO)C[C@@H]5O)C(C)[C@@]4(O)[C@]3(C)[C@@H](O)CC2[C@]1(C)C7 (stereo not given in full)
TGI [1]: 413 nM and 34.1 nM
TGI [2]: 498 nM and 18.2 nM
TGI [3]: 489 nM and 37.8 nM
TGI [4]: 440 nM and 41.4 nM
TGI [5]: 120 nM and 2.34 nM
TGI [6]: 852 nM and 37.9 nM
TGI [7]: 24.4 nM and 0.804 nM
TGI [8]: 207 nM and 10.8 nM
TGI [9]: 682 nM and 55.2 nM
TGI [10]: 323 nM and 19.3 nM
TGI [11]: 48.2 nM and 1.47 nM
TGI [12]: 129 nM and 1.99 nM
TGI [13]: 993 nM and 36 nM
TGI [14]: 59 nM and 1 µM
TGI [15]: 787 nM and 38.1 nM
TGI [16]: 39.8 nM and 0.385 nM
TGI [17]: 831 nM and 69.9 nM

O=c1cc(-c2cccc(OC(F)(F)F)c2)[nH]c2ccc(N3CCCC3)cc12
TGI [18]: 0.525 nM and > 100 µM
TGI [19]: 0.627 nM and > 100 µM
TGI [10]: 331 nM and 24.2 µM
TGI [20]: 176 nM and 12.6 µM

CCCC(=O)Nc1cc(C(=O)N2C[C@H]3C[C@@]34C2=CC(=O)c2[nH]cc(C)c24)n(COC)c1
TGI [21]: 2.81 µM and 273 nM
TGI [22]: 3.97 µM and 381 nM
TGI [23]: 11 µM and 520 nM
TGI [4]: 50 µM and 257 nM
TGI [5]: 12.4 µM and 352 nM
TGI [7]: 6.55 µM and 580 nM
TGI [24]: 8.39 µM and 394 nM
TGI [25]: 1.05 µM and 11 µM
TGI [14]: 52.7 nM and 18.2 µM
TGI [26]: 50 µM and 414 nM
TGI [16]: 39.4 µM and 224 nM

COC(=O)[C@@]12OC[C@]34[C@H]([C@@H](O)[C@@H]1O)[C@@]1(C)CC(=O)C(O)=C(C)[C@@H]1C[C@H]3OC(=O)[C@H](OC(=O)/C=C(\C)C(C)C)[C@@H]24
TGI [27]: 0.521 nM and 21.2 nM
TGI [28]: 0.753 nM and 118 nM
TGI [29]: 0.47 nM and 76.2 nM
TGI [18]: 20.1 nM and 735 nM
TGI [30]: 27.5 nM, < 10.4 nM, 1.31 µM
TGI [31]: 41.9 nM, < 13.4 nM, 215 nM
TGI [9]: 1.47 nM, 35.2 nM, 61.9 nM
TGI [32]: 5.16 nM and 107 nM
TGI [33]: 2.27 nM and 23.7 nM
TGI [34]: 2 nM, 3.59 nM, 25.8 nM
TGI [14]: 0.76 nM, 6.92 nM, 590 nM
TGI [35]: 90.3 nM, 9.62 µM, 4.4 µM

COc1cc(C(=O)c2cnc(-c3c[nH]c4cccc(C)c34)[nH]2)cc(OC)c1OC
TGI [20]: 316 nM and 35 µM
TGI [35]: 96.9 nM and > 100 µM

CCCCCCCCCCCC/C=C\CC[C@@H](O)[C@H](O)CC[C@H](O)[C@@H]1CC[C@@H](CCCCCCCC2=C[C@H](C)OC2=O)O1
TGI [23]: 3.02 µM and 34.1 µM
TGI [36]: 5.74 µM and 75.2 µM

CN(C)CCCN1c2ccccc2Sc2ccc(C(F)(F)F)cc21
TGI [37]: 32.6 µM [sample A] and 2.95 µM [sample B]
TGI [21]: 34.6 µM [sample A] and 28.5 µM [sample B] and 3.44 µM [sample C]
GI50 [38]: 13.8 µM [sample A, 1 test] and > 100 µM [sample B, 1 test] and 1.67 µM [sample C, 1 test]
TGI [38]: 27.3 µM [sample A, 1 test] and > 100 µM [sample B, 1 test] and 3.13 µM [sample C, 1 test]
TGI [22]: 29.1 µM [sample A] and 30.8 µM [sample B] and 2.95 µM [sample C]
TGI [39]: 29.7 µM [sample A] and 31.1 µM [sample B] and 3.07 µM [sample C]
TGI [30]: 29.3 µM [sample A] and 31.5 µM [sample B] and 2.92 µM [sample C]
GI50 [5]: 16.1 µM [sample A, 1 test] and > 100 µM [sample B, 1 test] and 1.54 µM [sample C, 1 test]
TGI [5]: 30.4 µM [sample A, 1 test] and > 100 µM [sample B, 1 test] and 2.87 µM [sample C, 1 test]
TGI [40]: 30.4 µM [sample A] and 34.5 µM [sample B] and 2.67 µM [sample C]
TGI [8]: 31.2 µM [sample A] and 30.8 µM [sample B] and 2.79 µM [sample C]
TGI [41]: 57.1 µM [sample A] and 40.5 µM [sample B] and 5.7 µM [sample C]
TGI [42]: 39.7 µM [sample A] and 36.7 µM [sample B] and 3.73 µM [sample C]
GI50 [24]: 6.08 µM [sample A, 1 test] and > 100 µM [sample B, 1 test] and 1.78 µM [sample C, 1 test]
TGI [24]: 21.6 µM [sample A, 1 test] and > 100 µM [sample B, 1 test] and 3.37 µM [sample C, 1 test]
TGI [10]: 30.1 µM [sample A] and 34.3 µM [sample B] and 2.86 µM [sample C]
TGI [43]: 34.8 µM [sample A] and 33.7 µM [sample B] and 2.92 µM [sample C]
TGI [44]: 28.5 µM [sample A] and 30.5 µM [sample B] and 3.05 µM [sample C]
TGI [45]: 31.6 µM [sample A] and 2.91 µM [sample B]
TGI [46]: 32.2 µM [sample A] and 2.33 µM [sample B]
TGI [16]: 31.7 µM [sample A] and 26.8 µM [sample B] and 2.67 µM [sample C]
TGI [36]: 30.3 µM [sample A] and 3.03 µM [sample B]
